From US20240117043A1 (SHANGHAI JUNSHI BIOSCIENCES, published 2024)

How the values were obtained:
[1] = target: T1, recombinant human HX1 hCD112R Fc (human, UniProt Q6DKI7 41-171, limits assumed); assay: ELISA, relative binding activity, sample kept at 40 C for 0 weeks
T1 construct: Coated antigen of the ELISA (Suzhou Junmeng); also called human CD112R; not shown: Fc part
T1 sequence (looked up): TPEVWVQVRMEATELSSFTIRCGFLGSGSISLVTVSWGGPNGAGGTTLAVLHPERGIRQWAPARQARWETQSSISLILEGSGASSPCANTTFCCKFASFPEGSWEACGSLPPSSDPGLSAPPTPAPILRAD
Experimental: (§1) The antibody samples were exchanged into a pH 5.5 buffer system (20 mM histidine-histidine hydrochloride buffer, 230 mM trehalose) with the concentration of the samples controlled at about 5 mg/mL, and the buffer was aliquoted into vials at 500 μL/vial. The vials were placed in a 40° C. incubator to test stability at 0 W, 2 W and 4 W. Samples were sent for analysis according to Table 2. Stability was assessed by the following parameters: (a) the content of antibody monomers, aggregates or fragments determined by SEC-HPLC (size exclusion chromatography); (b) the molecular weight of the antibody determined by CE-SDS (sodium dodecyl sulfate capillary electrophoresis); and (c) the bioactivity of the antibody determined by an ELISA or reporter gene assay.

[2] = target: T2, recombinant human TIGIT (His Tag) (human, UniProt Q495A1 22-141); assay: as above
T2 construct: Coated antigen of the ELISA; not shown: His tag
T2 sequence (looked up): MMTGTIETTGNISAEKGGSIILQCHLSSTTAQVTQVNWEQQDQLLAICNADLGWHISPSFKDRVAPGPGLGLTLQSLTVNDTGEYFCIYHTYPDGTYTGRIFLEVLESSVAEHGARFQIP
Experimental: as §1

[3] = target: T1, recombinant human HX1 hCD112R Fc; assay: ELISA, relative binding activity, sample kept at 40 C for 4 weeks
Experimental: as §1

[4] = target: T2, recombinant human TIGIT (His Tag); assay: as above
Experimental: as §1

[5] = target: T3, human TIGIT on the surface of Jurkat-hTIGIT cells (human, UniProt Q495A1 22-244); assay: flow cytometry, blocking of 1 ug/mL PVR-mFc binding to Jurkat-hTIGIT cells
T3 construct: whole, on cells; also called human TIGIT on the surface of Jurkat cells
T3 sequence (looked up): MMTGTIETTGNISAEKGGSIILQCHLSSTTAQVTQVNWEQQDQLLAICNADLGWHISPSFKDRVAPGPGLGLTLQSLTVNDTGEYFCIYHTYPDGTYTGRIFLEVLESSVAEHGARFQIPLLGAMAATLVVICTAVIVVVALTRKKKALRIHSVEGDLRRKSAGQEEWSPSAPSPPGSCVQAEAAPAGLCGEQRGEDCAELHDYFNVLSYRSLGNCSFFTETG
Experimental: Jurkat-hTIGIT cells (human T lymphocytes, human TIGIT positive) were incubated with different concentrations of the bispecific antibodies JS-1, JS-3, JS-5 and JS-9 and 1 μg/mL human PVR-mFc protein at 4° C. for 30 min, then washed and incubated with a fluorescence-labeled anti-mouse IgG secondary antibody (1:200) in a dark place at 4° C. for 30 min. Finally, the cells were collected using a flow cytometer (BD Canto II), and the fluorescent antibodies bound to the cell surface were detected. Raw data were analyzed using FlowJo to obtain MFI values, antibody dose-dependent binding curves (FIG. 4) were fitted using GraphPad, and IC50 was calculated. The positive controls were hu20 (a recombinant humanized anti-TIGIT monoclonal antibody) and JS-Ref (Hengrui) (an anti-TIGIT/CD112R bispecific antibody of Hengrui, expressed and purified according to the sequence of the patent WO2021180205), and the negative control was an anti-KLH-hIgG4 antibody.

human CD112R-mFc protein = target: T4, human CD112R-mFc protein (human, UniProt Q6DKI7 41-171, limits assumed); assay: flow cytometry, blocking of 1 ug/mL CD112R-mFc binding to CHO hCD112 cells
T4 construct: also called human CD112R protein; not shown: mouse Fc (mFc)
T4 sequence (looked up): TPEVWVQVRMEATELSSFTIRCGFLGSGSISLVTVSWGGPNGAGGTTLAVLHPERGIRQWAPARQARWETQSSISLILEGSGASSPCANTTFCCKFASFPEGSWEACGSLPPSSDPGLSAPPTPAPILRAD
Experimental: CHO hCD112 cells (Chinese hamster ovary cells, human CD112 positive) were incubated with different concentrations of the bispecific antibodies JS-1, JS-3, JS-5 and JS-9 and 1 μg/mL human CD112R-mFc protein at 4° C. for 30 min, then washed twice and incubated with a fluorescence-labeled anti-mouse IgG secondary antibody (1:200) in a dark place at 4° C. for 30 min. Finally, the cells were collected using a flow cytometer (BD Canto II), and the fluorescent antibodies bound to the cell surface were detected. Raw data were analyzed using FlowJo to obtain MFI values, antibody dose-dependent binding curves (FIG. 4) were fitted using GraphPad, and IC50 was calculated. The positive controls were hu52 (a recombinant humanized anti-CD112R monoclonal antibody) and JS-Ref (Hengrui) (an anti-TIGIT/CD112R bispecific antibody of Hengrui, expressed and purified according to the sequence of the patent WO2021180205), and the negative control was an anti-KLH-hIgG1 antibody.

[6] = target: T1, recombinant human HX1 hCD112R Fc; assay: ELISA, relative binding activity, sample kept at 40 C for 2 weeks
Experimental: as §1

[7] = target: T2, recombinant human TIGIT (His Tag); assay: as above
Experimental: as §1

Row | Binder | CD112R binding activity Elisa (%) [1] [%] | TIGIT binding activity Elisa (%) [2] [%] | CD112R binding activity Elisa (%) [3] [%] | TIGIT binding activity Elisa (%) [4] [%] | IC50 [5] [nM] | IC50 (human CD112R-mFc protein) [nM] | CD112R binding activity Elisa (%) [6] [%] | TIGIT binding activity Elisa (%) [7] [%]
1 | bispecific antibody JS-5 (IgG1) (bispecific antibody, Tetravalent) heavy: QVQLVQSGAEVKKPGASVKVSCKTSGYAFTEYTMHWVRQAPGKGLEWMGGINPNTGGTTYNQKFQGRVTLTVDKSSSTAYMELSSLRSEDTVVYYCAKLLRLMYYFDYWGQGTLVTVSS[human IgG1 constant region omitted here]GGSGGGGSDIVMTQSPDSLAVSLGERATINCKASQSVSNDVAWYQQKPGQPPKLLIYYVSHRFTGVPDRFSGSGSGTDFTLTISSLQAEDVAVYFCHQAYRSPWTFGCGTKLEIKGGGGSGGGGSGGGGSGGGGSEVQLVESGGGLVKPGGSLRLSCAASGFTFSSYHMSWVRQAPGKCLELVSAINSNGINTYYLDTVKGRFTISRDNAKNSLYLQMNSLRAEDTAVYYCARHEDYYGFAMDYWGQGTLVTVSS light: DIQMTQSPSSLSASVGDRVTITCQASQDVRTAVAWYQQKPGKAPKLLIYSASYRYTGVPSRFSGSGSGTDFTFTISSLQPEDIATYYCHQHYITPWTFGGGTKVEIKRTVAAPSVFIFPPSDEQLKSGTASVVCLLNNFYPREAKVQWKVDNALQSGNSQESVTEQDSKDSTYSLSSTLTLSKADYEKHKVYACEVTHQGLSSPVTKSFNRGEC | 99 | 97 | 80 | 72 | 1.86 | 0.781 | 99 | 100
2 | bispecific antibody JS-9 (IgG1) (bispecific antibody, Tetravalent) heavy: DIVMTQSPDSLAVSLGERATINCKASQSVSNDVAWYQQKPGQPPKLLIYYVSHRFTGVPDRFSGSGSGTDFTLTISSLQAEDVAVYFCHQAYRSPWTFGCGTKLEIKGGGGSGGGGSGGGGSGGGGSEVQLVESGGGLVKPGGSLRLSCAASGFTFSSYHMSWVRQAPGKCLELVSAINSNGINTYYLDTVKGRFTISRDNAKNSLYLQMNSLRAEDTAVYYCARHEDYYGFAMDYWGQGTLVTVSSGGGGSGGGGSQVQLVQSGAEVKKPGASVKVSCKTSGYAFTEYTMHWVRQAPGKGLEWMGGINPNTGGTTYNQKFQGRVTLTVDKSSSTAYMELSSLRSEDTVVYYCAKLLRLMYYFDYWGQGTLVTVSS[human IgG1 constant region omitted here] light: DIQMTQSPSSLSASVGDRVTITCQASQDVRTAVAWYQQKPGKAPKLLIYSASYRYTGVPSRFSGSGSGTDFTFTISSLQPEDIATYYCHQHYITPWTFGGGTKVEIKRTVAAPSVFIFPPSDEQLKSGTASVVCLLNNFYPREAKVQWKVDNALQSGNSQESVTEQDSKDSTYSLSSTLTLSKADYEKHKVYACEVTHQGLSSPVTKSFNRGEC | 99 | 105 | 98 | 99 | 3.93 | 0.623 | 95 | 98
